The structures appear in SMILES notation. The list shows a part of the results. Repeats are few or missing, and single values can be far off.
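Note: cells treated in 1,536-well plates, then fixed and DAPI-stained, with nuclei counted from automated high-throughput microscope images.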

The test system of this assay is IPC-298. The experiment in a line: cell count relative to DMSO control; melanoma cells; higher = more viable cells. Particulars: library dose: standard library concentration; 72 h.
In turn, `CC(=O)O[C@@]12CO[C@@H]1C[C@H](O)[C@@]1(C)C(=O)[C@H](O)C3=C(C)[C@@H](OC(=O)[C@H](O)[C@@H](NC(=O)OC(C)(C)C)c4ccccc4)C[C@@](O)([C@@H](OC(=O)c4ccccc4)[C@H]21)C3(C)C` [Docetaxel] + CC1(C)NC(=O)N(c2ccc([N+](=O)[O-])c(C(F)(F)F)c2)C1=O [nilutamide] (first compound 0.0005 µM, partner dose 5 µM) returned a cell count of 41.8%.

On to `CC(=O)c1c(C)c2cnc(Nc3ccc(N4CCNCC4)cn3)nc2n(C2CCCC2)c1=O` [palbociclib] + NCC(=O)Nc1ccc(-n2nc(C(F)(F)F)cc2-c2ccc3c(ccc4ccccc43)c2)cc1 [OSU03012] (first compound 0.2 µM, partner dose 5 µM), for which the cell count amounted to 52.8%.

Regarding `Nc1nc(F)nc2c1ncn2[C@@H]1O[C@H](CO)[C@@H](O)[C@@H]1O` [fludarabine] + Nc1cccc2c1CN(C1CCC(=O)NC1=O)C2=O [lenalidomide] (first compound 1 µM, partner dose 5 µM), the cell count worked out at 66.7%.

As for `CC(=O)O[C@@]12CO[C@@H]1C[C@H](O)[C@@]1(C)C(=O)[C@H](O)C3=C(C)[C@@H](OC(=O)[C@H](O)[C@@H](NC(=O)OC(C)(C)C)c4ccccc4)C[C@@](O)([C@@H](OC(=O)c4ccccc4)[C@H]21)C3(C)C` [Docetaxel] + Oc1cc(-c2nc(-c3ccccc3)[nH]c2-c2ccncc2)ccc1Cl [L779450] (first compound 0.0005 µM, partner dose 1 µM), the cell count came out at 36.8%.

These data come from the supplement of paper PMC4604168 (melanoma cell lines).
